# Measurements taken from the supplement of paper PMC3334620.
# Whole data set: some 33,000 sequences, median “E-score (-0.5 to 0.5)” near -0.053, cut for the highest 2% near 0.37. This is one part of the list.
# Molecular target: Hap1 (UniProt P0CE41)
# Test: PBM E-score (8-mer binding enrichment) (E-score (-0.5 to 0.5)); higher = stronger / more preferred TF binding; most listed sequences are background and not binding sites
# Details: protein concentration: 200 nM; construct: GST-DNA-binding domain
# Method in brief: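 Masliner-normalised scans of fluorescent anti-GST signal were the basis for scoring. That signal came from GST-tagged yeast transcription factors applied at about 100-200 nM to double-stranded universal all-10-mer Agilent arrays on fresh or once-stripped slides. Each ungapped eight-base word, pooled with its reverse complement, received an E-score from the Universal PBM Analysis Suite.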
# Chain of UniProt P0CE41 (P0CE41 whole entry): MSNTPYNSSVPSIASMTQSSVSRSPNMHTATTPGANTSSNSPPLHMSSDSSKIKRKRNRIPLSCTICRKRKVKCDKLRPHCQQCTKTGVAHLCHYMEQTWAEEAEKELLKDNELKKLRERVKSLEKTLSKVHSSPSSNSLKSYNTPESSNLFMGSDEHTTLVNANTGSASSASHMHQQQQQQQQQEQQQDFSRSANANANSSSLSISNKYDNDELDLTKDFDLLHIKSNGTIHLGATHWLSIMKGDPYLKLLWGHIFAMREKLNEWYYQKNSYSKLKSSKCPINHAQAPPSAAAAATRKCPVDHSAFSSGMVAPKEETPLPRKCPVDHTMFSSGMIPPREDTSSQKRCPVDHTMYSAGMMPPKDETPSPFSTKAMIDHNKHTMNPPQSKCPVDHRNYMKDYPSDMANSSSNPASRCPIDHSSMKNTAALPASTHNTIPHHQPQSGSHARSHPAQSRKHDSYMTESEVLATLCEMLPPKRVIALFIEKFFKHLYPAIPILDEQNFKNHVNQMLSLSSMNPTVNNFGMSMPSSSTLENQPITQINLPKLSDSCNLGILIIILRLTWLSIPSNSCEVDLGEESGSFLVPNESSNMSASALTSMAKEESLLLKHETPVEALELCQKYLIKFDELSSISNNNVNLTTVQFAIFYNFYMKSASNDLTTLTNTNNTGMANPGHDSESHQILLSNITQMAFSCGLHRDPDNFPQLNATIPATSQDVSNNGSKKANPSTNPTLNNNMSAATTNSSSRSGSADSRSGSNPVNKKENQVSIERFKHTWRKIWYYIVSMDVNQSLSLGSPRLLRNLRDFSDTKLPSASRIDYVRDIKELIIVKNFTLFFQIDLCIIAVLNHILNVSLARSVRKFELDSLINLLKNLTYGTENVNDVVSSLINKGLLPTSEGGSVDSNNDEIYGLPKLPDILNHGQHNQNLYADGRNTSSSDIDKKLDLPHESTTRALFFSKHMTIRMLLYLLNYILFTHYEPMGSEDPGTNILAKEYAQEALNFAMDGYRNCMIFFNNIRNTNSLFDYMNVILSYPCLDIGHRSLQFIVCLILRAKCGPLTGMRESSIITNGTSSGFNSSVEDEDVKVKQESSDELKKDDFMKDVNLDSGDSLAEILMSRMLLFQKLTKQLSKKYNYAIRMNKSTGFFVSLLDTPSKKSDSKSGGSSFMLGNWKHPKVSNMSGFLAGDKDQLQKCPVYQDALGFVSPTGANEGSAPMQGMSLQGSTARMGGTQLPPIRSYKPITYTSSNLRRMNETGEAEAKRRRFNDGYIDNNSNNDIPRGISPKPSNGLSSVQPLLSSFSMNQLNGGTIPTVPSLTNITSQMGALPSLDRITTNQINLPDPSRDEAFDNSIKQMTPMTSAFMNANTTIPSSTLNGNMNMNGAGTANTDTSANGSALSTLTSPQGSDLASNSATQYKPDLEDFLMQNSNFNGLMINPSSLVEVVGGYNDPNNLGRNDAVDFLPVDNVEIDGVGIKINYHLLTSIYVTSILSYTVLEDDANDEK
row,Sequence,PBM E-score
1,GAGAGGGA,-0.235
2,ACATCCCA,-0.0122
3,AACTAAGG,-0.193
4,CGACCCTC,-0.0597
5,GGCTTTGA,0.142
6,AAGGCGTG,-0.242
7,GACGCCCA,-0.0742
8,AGGCGAAC,-0.023
9,GAGAAGCA,-0.12
10,CTAATAAA,0.0213
11,TGTGAACA,-0.2
12,GTGTTGGA,-0.11
13,CACCTTAA,-0.0226
14,CGGGTCAA,0.328
15,CATCGTAC,-0.183
16,GTCGACAC,-0.156
17,TACGTAAA,-0.37
18,AATTATGG,-0.0776
19,TGGTCAAA,-0.101
20,CCAGCCCC,-0.0384
21,ATATTCAG,-0.0163
22,CCCACCAG,-0.128
23,ATGAGTCA,-0.264
24,GTCAGCGA,-0.103
25,AATCAGGG,-0.295

row,Sequence,PBM E-score
1,ACGGGACG,0.166
2,GCACCCCA,0.0516
3,ATGAATTG,-0.0207
4,ACATGCCC,0.027
5,AGGTCTAA,-0.0861
6,ACCACGGT,-0.189
7,CCCGTAGA,0.0044
8,ACAATCGC,0.166
9,AAATATGT,0.181
10,CAAGTCCG,0.39
11,AAAATACT,-0.00133
12,CCAATGGG,-0.162
13,TATAATAA,0.0529
14,AGACCTTA,-0.154
15,AGATTACG,0.137
16,TTTCCAAA,-0.109
17,CACGGCCG,0.337
18,GATTTTGA,0.0507
19,AATTTATG,0.021
20,AGGACGAC,-0.143
21,CATACGCA,-0.15
22,GTTGATGA,-0.0424
23,ACCTCACC,-0.0781
24,TATATAAA,-0.024
25,CATTCTCA,-0.0441

row,Sequence,PBM E-score
1,ACTCATGA,-0.114
2,AAACTTAT,0.0956
3,AGGCAAGA,-0.206
4,TGGGTCAA,-0.312
5,CTTTATTA,-0.156
6,CGACGACG,0.0664
7,CATCCGCA,0.224
8,CGAAAATA,0.171
9,GAGAGTTA,-0.237
10,ATCTCTTC,-0.0222
11,ACTCGCGC,0.156
12,AGATCAGC,0.0244
13,CCATTACC,0.0942
14,CGCGACGA,0.0833
15,CAAGCTAG,-0.26
16,CAAACACA,-0.255
17,AGGTCGCC,0.0823
18,AGAGTAGA,0.0496
19,CACGTTCC,-0.115
20,ACCGGTTC,0.369
21,CATCTAGC,-0.1
22,ATGAAGCG,-0.208
23,ACTCACCC,0.125
24,ACTCCGCC,0.306
25,TAGAACGA,-0.235

row,Sequence,PBM E-score
1,AGGTTCGC,-0.00504
2,AATATGTA,-0.0953
3,ACGACAGG,0.0149
4,CAAGTGAA,-0.178
5,TGAACGAA,-0.332
6,ATACACCC,0.145
7,TAATTAAA,-0.134
8,GGAGTCCA,-0.0702
9,ATCATTGG,-0.29
10,CATCCCTC,0.00642
11,TAAATGCA,0.0655
12,AAGAGAAG,-0.143
13,AGCGTTGC,0.127
14,AGTCAGAG,-0.164
15,TAATCGCA,-0.15
16,CAACGGCG,0.157
17,AGTGTTGC,-0.105
18,ACTCGGGG,0.288
19,GGACTGTA,-0.0223
20,ACATCGCT,-0.014
21,CGGCAAAC,0.331
22,AGGTTCCA,-0.134
23,AATGCGGT,0.0532
24,CCTCCAGA,-0.0419
25,AGGCAGAT,-0.176

row,Sequence,PBM E-score
1,CGTTTTAG,-0.114
2,GGACCACA,0.147
3,AAAGTGTT,0.123
4,GCTCAGGA,-0.24
5,ACGAAGTA,-0.119
6,CACGTACA,-0.313
7,AGTCCGCC,0.292
8,ATAGTAAG,-0.0903
9,GCGAGTTA,0.0672
10,CAGCTTCG,-0.0259
11,GACTTCGA,-0.116
12,CGCAACCG,0.222
13,GATTTAGA,0.142
14,AAGCGTAC,-0.292
15,ATAGGATG,-0.0307
16,AATCTATA,-0.0526
17,CGGGGTGA,0.214
18,AGCGAGGC,-0.0336
19,CGAGGTTA,0.0616
20,CCTTTTTA,-0.0714
21,TGAGGCCA,-0.205
22,ACTGTGCA,-0.258
23,AGCCTACG,-0.141
24,CATTGGAC,-0.145
25,CGTAAATC,0.189

row,Sequence,PBM E-score
1,TCGGTGAA,0.28
2,AAGCTTAC,-0.253
3,TAACATGA,-0.15
4,AAAACCTC,0.178
5,CGCCCTGC,-0.0955
6,GAGGGAGA,-0.0322
7,ATTAAGCA,-0.0163
8,CAGTGCTC,-0.185
9,CGAGCAGC,0.0468
10,GAGGATCA,-0.22
11,GTGGTTGA,-0.233
12,AGATGGAA,-0.0355
13,AATTTAGT,0.0091
14,TGCGGCCA,0.0873
15,CCAAATGG,-0.14
16,CGGTTCGC,0.0668
17,AAGGCGTA,-0.291
18,ATAGGCTG,-0.138
19,AGTCAGGG,-0.341
20,AGCCTTGC,-0.263
21,ACTATGTC,-0.0699
22,GCTTCGAC,0.00236
23,ACGTAGGG,-0.174
24,GAAACTTA,0.0651
25,CGTAGAAA,-0.0576

row,Sequence,PBM E-score
1,AGTTTTTA,-0.141
2,AGGAAGCA,-0.194
3,AGATTCAT,-0.161
4,TGAACCCA,-0.0651
5,CAGTCGCC,-0.0722
6,CCTGAGGA,-0.164
7,CAAGTGGA,-0.239
8,AAACTTTA,0.0529
9,AGCCGGAT,0.418
10,CACAACAA,-0.232
11,AATCTGGT,0.115
12,CGTACTAC,0.137
13,GACCAAAC,0.0321
14,TAGTCCGA,0.42
15,GCTCAGCA,-0.221
16,AAGTATTA,-0.145
17,ACACCCGC,0.158
18,ACCCCTAC,-0.263
19,AATAGGTG,-0.225
20,CTTGGACA,-0.0486
21,CTTACACC,-0.089
22,AGCCCTAT,-0.152
23,AAAAACAT,-0.171
24,AAATTCAT,-0.207
25,ATCGTCCG,0.379

row,Sequence,PBM E-score
1,ACTTCATG,-0.00326
2,CACCCGTA,0.0859
3,AGAGGAGC,-0.21
4,AACAGTTA,0.155
5,CCGCGAAC,0.191
6,ACGCGCCG,0.188
7,AATCCATG,-0.036
8,AGGGCACT,-0.157
9,ATCTCTTG,-0.188
10,CTCCCATA,-0.297
11,GCTACGCC,-0.0393
12,GAGGGAAA,-0.239
13,ATTGCAGA,-0.155
14,CCGTAACC,0.298
15,CACCCTGG,-0.207
16,ACAGCCAC,-0.0119
17,CCTCATGC,-0.155
18,ACTCTGAG,-0.27
19,ACCATGGT,-0.233
20,CGGTCGTC,0.165
21,CCCCTTTA,-0.337
22,CCCCCACC,-0.153
23,ATACTCTC,-0.0193
24,CACGGGAA,0.09
25,GAGAACCA,-0.0916

row,Sequence,PBM E-score
1,CCCAGACG,-0.143
2,AGGCTCAG,-0.366
3,CCTAGGTA,-0.239
4,GGCGGAAA,0.29
5,ATACCCCC,0.283
6,CGGGAAAC,0.265
7,TGCTACCA,-0.242
8,CTACACTC,-0.194
9,ACCTCTTG,-0.021
10,TAGCACGA,-0.0859
11,AACCCGAA,0.326
12,AATCGAAG,0.0385
13,CAATCCTG,-0.0794
14,CACTCCGG,0.302
15,CGCCGGAC,0.409
16,ATGGCTGA,-0.229
17,TAGCGAGA,-0.102
18,CCGATGCC,0.242
19,ATTTGCGG,0.311
